From the supplement of paper PMC4604168 (melanoma cell lines)
The other results are listed elsewhere or left out. Many values rest on one well or one pass, so single values are uncertain.

Tested on: COLO829
Assay: cell count relative to DMSO control; melanoma cells; higher = more viable cells
Details: library dose: standard library concentration; 72 h
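Also: cells treated in 1,536-well plates, then fixed and DAPI-stained, with nuclei counted from automated high-throughput microscope images.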

Row | SMILES | cell count
1 | O=c1[nH]nc(Sc2ncc([N+](=O)[O-])s2)n1-c1ccc2c(c1)OCCO2 + Nc1nc(F)nc2c1ncn2[C@@H]1O[C@H](CO)[C@@H](O)[C@@H]1O [fludarabine] (first compound 1 µM, partner dose 1 µM) | 72.1%
2 | COc1cc(Nc2ncc(F)c(Nc3ccc4c(n3)NC(=O)C(C)(C)O4)n2)cc(OC)c1OC [Tamatinib] + CC1(C)NC(=O)N(c2ccc([N+](=O)[O-])c(C(F)(F)F)c2)C1=O [nilutamide] (first compound 2 µM, partner dose 5 µM) | 80.3%
3 | O=c1[nH]nc(Sc2ncc([N+](=O)[O-])s2)n1-c1ccc2c(c1)OCCO2 + CC(=O)O[C@@]12CO[C@@H]1C[C@H](O)[C@@]1(C)C(=O)[C@H](O)C3=C(C)[C@@H](OC(=O)[C@H](O)[C@@H](NC(=O)OC(C)(C)C)c4ccccc4)C[C@@](O)([C@@H](OC(=O)c4ccccc4)[C@H]21)C3(C)C [Docetaxel] (first compound 1 µM, partner dose 0.0005 µM) | 43.6%
4 | O=C(O)c1ccc(-c2c[nH]c3ncc(-c4ccccc4)cc23)cc1C1CCCC1 + COc1ccc(COc2ccc(Cc3cnc(N)nc3N)cc2OC)cc1 [GW2580] (first compound 0.8 µM, partner dose 5 µM) | 100%
5 | O=c1[nH]nc(Sc2ncc([N+](=O)[O-])s2)n1-c1ccc2c(c1)OCCO2 + COc1cc(Nc2ncc(F)c(Nc3ccc4c(n3)NC(=O)C(C)(C)O4)n2)cc(OC)c1OC [Tamatinib] (first compound 1 µM, partner dose 2 µM) | 78.9%
6 | COc1cc(Nc2ncc(F)c(Nc3ccc4c(n3)NC(=O)C(C)(C)O4)n2)cc(OC)c1OC [Tamatinib] + NC(=O)Nc1cc(-c2cccc(F)c2)sc1C(=O)N[C@H]1CCCNC1 [AZD7762] (first compound 2 µM, partner dose 0.1 µM) | 75.8%
7 | O=c1[nH]nc(Sc2ncc([N+](=O)[O-])s2)n1-c1ccc2c(c1)OCCO2 + Cc1ccc(Nc2nccc(N(C)c3ccc4c(C)n(C)nc4c3)n2)cc1S(N)(=O)=O [Pazopanib] (first compound 1 µM, partner dose 2 µM) | 66.1%
8 | CC1(C)NC(=O)N(c2ccc([N+](=O)[O-])c(C(F)(F)F)c2)C1=O [nilutamide] + Cc1ccc(NC(=O)c2cccc(N(C)C)c2)cc1NC(=O)c1ccc(O)cc1 [ZM336372] (first compound 5 µM, partner dose 10 µM) | 104%
9 | Cn1cncc1[C@@](N)(c1ccc(Cl)cc1)c1ccc2c(c1)c(-c1cccc(Cl)c1)cc(=O)n2C [tipifarnib] + COC(=O)c1sccc1S(=O)(=O)Nc1ccc(Nc2ccccc2)cc1OC [GSK0660] (first compound 0.05 µM, partner dose 5 µM) | 71.8%
10 | O=c1[nH]nc(Sc2ncc([N+](=O)[O-])s2)n1-c1ccc2c(c1)OCCO2 + C[C@]1(O)C[C@@H](c2nc(-c3ccc4ccc(-c5ccccc5)nc4c3)c3c(N)nccn32)C1 [OSI906] (first compound 1 µM, partner dose 2 µM) | 97.8%
11 | COc1cc(Nc2ncc(F)c(Nc3ccc4c(n3)NC(=O)C(C)(C)O4)n2)cc(OC)c1OC [Tamatinib] + Cc1ccc(NC(=O)c2cccc(N(C)C)c2)cc1NC(=O)c1ccc(O)cc1 [ZM336372] (first compound 2 µM, partner dose 10 µM) | 88.6%
12 | O=c1[nH]nc(Sc2ncc([N+](=O)[O-])s2)n1-c1ccc2c(c1)OCCO2 + C[C@]1(c2nc3c(C(N)=O)cccc3[nH]2)CCCN1 [Veliparib] (first compound 1 µM, partner dose 7 µM) | 94.1%
